# Laboratory results published in PubChem BioAssay (NCATS).
# Inconclusive means that the source gave no clear call. Such entries were picked first, then a sample of the others. For part of these data: No potency is given beside an inconclusive call; the fits are too rough. Calls of active or inactive are those of the source. Unless noted, calls follow the shape of the dose curve; as a rule, active = well fitted curve in the direction sought with a large enough effect; inconclusive = small, poorly fitted or top-dose-only effect, or another doubt; inactive = no such curve, though single readings can be large; an effect the other way counts as inactive or inconclusive.
# Columns and labels:
# [1] = Primary qHTS for small molecule stabilizers of the endoplasmic reticulum resident proteome: Secreted ER Calcium Modulated Protein (SERCaMP) assay (AID 1508630); settings: SH-SY5Y GLuc-SERCaMP (Gaussia luciferase released on ER calcium loss) secretion, thapsigargin, luminescence; activity change, negative = inhibition: at 38.4 µM (top of the series) unless noted; also: potency is read from the fitted curve at half-maximal effect; as to activity change, negative = inhibition: % is scaled to controls: 0 for no effect and ±100 for the full control effect
# Outline: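 GLuc-SERCaMP-expressing SH-SY5Y cells, pretreated 16 h with compound, are challenged with thapsigargin to empty ER calcium stores; after 4 h, coelenterazine is added directly to the medium and luminescence is imaged.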
# [2] = Primary qHTS for inhibitors of nuclear receptor binding SET domain protein 2 (NSD2) in an RCH-ACV wild type WT cells (2C) (AID 1645877); settings: activity change, negative = cell killing: at 44.9 µM (top of the series) unless noted; also: nearly all actives have a fitted effect of over 70% in size; also: potency is read from the fitted curve at half-maximal effect
# HEK293 = assay: Cytotoxic Profiling of Annotated Libraries Using Quantitative High-Throughput Screening (AID 1296008); settings: Five cell lines viability, CellTiter-Glo ATP luminescence, 48-72 h; max response: stronger effect = lower value; also: nearly all actives have a fitted effect of over 60% in size; also: potency is read from the fitted curve at half-maximal effect
# Outline: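 Compounds were pin-transferred onto cells and incubated 48 or 72 hr at 37 degree Celsius, 95% humidity. CellTiter-Glo was added, plates sat 10 min at room temperature, then ATP-coupled luminescence was imaged as the viability read-out.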
# Hek293T = assay: Primary qHTS to identify gynecologic anti-cancer compounds using libraries of approved drugs and bioactive compounds (AID 1345084); settings: Gynecologic cancer cell panel viability, ATPlite luminescence, 48 h, control line for the selectivity index; activity change, negative = cytotoxicity: at 57.5 µM (top of the series) unless noted; also: nearly all actives have a fitted effect of over 55% in size; also: potency is read from the fitted curve at half-maximal effect; as to activity change, negative = cytotoxicity: % is scaled to controls: 0 for no effect and ±100 for the full control effect
# Outline: (§1)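 Cells, 1,000 per well, plated 16 h, then exposed 48 h at 37 C to compounds. Viability by ATPlite luminescence after 15 min at room temperature.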
# Tov-21-G = assay: as above; settings: Gynecologic cancer cell panel viability, ATPlite luminescence, 48 h; activity change, negative = cytotoxicity: at 57.5 µM (top of the series) unless noted
# Outline: as §1
# MKL-2 = assay: qHTS assay to identify novel small-molecules to repurpose for Merkel cell carcinoma treatment (AID 1296009); settings: MCC and control cell lines, CellTiter-Glo viability, 72 h; activity change, negative = cytotoxicity: at 46 µM (top of the series); also: nearly all actives have a fitted effect of over 60% in size; also: potency is read from the fitted curve at half-maximal effect
# Outline: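 qHTS format: cells treated with library compounds in DMSO across 8 (NPC) or 11 (MIPE) concentrations. Readout after 72 hr at 37 degree celsius was CellTiter-Glo luminescence.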
# [3] = P-glycoprotein substrates identified in KB-8-5-11 adenocarcinoma cell line, qHTS therapeutic library screen (AID 1346987); also: potency is read from the fitted curve at half-maximal effect; nearly all actives have a fitted effect of over 65% in size
# Outline: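 KB-8-5-11, a colchicine-selected P-gp-overexpressing KB-3-1 subline, was grown without colchicine for the assay. Cells were seeded at 500 cells/well, dosed in concentration-response and incubated 72 h at 37 degree C, 5% CO2. Viability was read by CellTiter-Glo luminescence.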
# [4] = Primary qHTS for inhibitors of nuclear receptor binding SET domain protein 2 (NSD2) in an isogenic RCH-ACV NSD2 p.E1099K mutant (9B) (AID 1645876); also: nearly all actives have a fitted effect of over 70% in size; also: potency is read from the fitted curve at half-maximal effect
# CASKI = assay: Primary qHTS to identify gynecologic anti-cancer compounds using libraries of approved drugs and bioactive compounds (AID 1345084); settings: Gynecologic cancer cell panel viability, ATPlite luminescence, 48 h; series mostly up to 57.5 µM; also: nearly all actives have a fitted effect of over 55% in size; also: potency is read from the fitted curve at half-maximal effect; as to activity change, negative = cytotoxicity: % is scaled to controls: 0 for no effect and ±100 for the full control effect
# Outline: as §1
# OV90 = assay: as above; settings: Gynecologic cancer cell panel viability, ATPlite luminescence, 48 h; series mostly up to 57.5 µM
# Outline: as §1
# SKOV3 = assay: as above; settings: Gynecologic cancer cell panel viability, ATPlite luminescence, 48 h; series mostly up to 57.5 µM
# Outline: as §1
# CAOV3 = assay: as above; settings: Gynecologic cancer cell panel viability, ATPlite luminescence, 48 h; activity change, negative = cytotoxicity: at 57.5 µM (top of the series)
# Outline: as §1
# PA-1 = assay: as above; settings: Gynecologic cancer cell panel viability, ATPlite luminescence, 48 h; series mostly up to 57.5 µM
# Outline: as §1
# [5] = molecular target: Cytochrome P450 2D6 (Homo sapiens) (UniProt P10635); assay: Cytochrome P450 family 2 subfamily D member 6 (CYP2D6) small molecule antagonists: luciferase biochemical (cell-free) qHTS assay (AID 1645840; active = well fitted curve in the direction sought with a large enough effect in the repeat runs; inconclusive = weak or mixed curves; inactive = no such curve, though single readings can be large; an effect the other way counts as inactive or inconclusive; also: nearly all actives have a fitted effect of over 55% in size; also: potency is read from the fitted curve at half-maximal effect)
# UniProt P10635, sequence (P10635 whole entry, looked up): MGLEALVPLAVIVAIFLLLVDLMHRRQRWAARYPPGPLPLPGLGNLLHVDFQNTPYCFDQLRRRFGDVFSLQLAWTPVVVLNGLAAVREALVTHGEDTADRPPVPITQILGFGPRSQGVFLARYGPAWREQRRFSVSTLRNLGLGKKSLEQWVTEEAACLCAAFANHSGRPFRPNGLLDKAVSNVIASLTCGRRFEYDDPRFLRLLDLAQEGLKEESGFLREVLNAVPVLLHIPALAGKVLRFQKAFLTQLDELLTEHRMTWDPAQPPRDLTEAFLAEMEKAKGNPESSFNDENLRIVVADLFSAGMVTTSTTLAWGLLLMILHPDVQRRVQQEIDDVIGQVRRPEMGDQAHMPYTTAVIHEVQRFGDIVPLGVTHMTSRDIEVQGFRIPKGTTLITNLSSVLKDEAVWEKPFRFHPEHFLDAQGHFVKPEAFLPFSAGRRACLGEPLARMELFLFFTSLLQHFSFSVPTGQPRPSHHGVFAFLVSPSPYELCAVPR
# Outline: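 P450-Glo luminescent screen: recombinant CYP2D6 enzyme–proluciferin substrate mix preincubated with compound 10 min at room temperature, then NADPH regeneration added for 1 h at room temperature. Detection reagent added for 20 min; luciferin light read as relative luminescence units.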
# C33A = assay: Primary qHTS to identify gynecologic anti-cancer compounds using libraries of approved drugs and bioactive compounds (AID 1345084); settings: Gynecologic cancer cell panel viability, ATPlite luminescence, 48 h; series mostly up to 57.5 µM; also: nearly all actives have a fitted effect of over 55% in size; also: potency is read from the fitted curve at half-maximal effect; as to activity change, negative = cytotoxicity: % is scaled to controls: 0 for no effect and ±100 for the full control effect
# Outline: as §1
# HeLa = assay: as above; settings: Gynecologic cancer cell panel viability, ATPlite luminescence, 48 h; activity change, negative = cytotoxicity: at 57.5 µM (top of the series)
# Outline: as §1
# [6] = Drug repurposing screens with cells derived from glioblastoma tumor samples (AID 1345199); settings: GBM patient neurospheres viability, ATP luminescence, 48 h; Potency: tumour line A unless noted; activity, negative = cell killing: at 46 µM (top of the series), tumour line A unless noted; also: % is scaled to controls: 0 for no effect and ±100 for the full control effect; nearly all actives have a fitted effect of over 40% in size
# Outline: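 Four patient lines of CD133+ GBM neurospheres were screened at several concentrations; hits were retested in those lines plus three slower-growing GBM lines, using 48-hour treatment and ATP-based viability.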
# [7] = test system: Zika virus NS2B-NS3 protease (unlinked complex); assay: Primary screen GU Rhodamine qHTS for Zika virus inhibitors: Unlinked NS2B-NS3 protease assay (AID 1347159); also: potency is read from the fitted curve at half-maximal effect; nearly all actives have a fitted effect of over 60% in size
# Outline: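 Percent inhibition derives from the 15-min fluorescence change (ex 480, em 540 nm), normalized to no-enzyme and no-inhibitor wells. Reactions contained 25 nM NS2B-NS3 complex and 1.5 microM substrate in 10 mM Tris-HCl pH 8.0.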
# Tags tell the direction and shape of the fitted curve.
smiles,measurement,setting,value
CC(N)C(=O)OC(C)(C)Cc1ccc(Cl)cc1 (centres undefined),Potency,[1],"inconclusive [inhibitor, single point] and inactive"
same,Potency,[2],"inconclusive [inhibitor, single point]"
same,Potency,HEK293,"inconclusive [inhibitor, single point]"
same,Potency,Hek293T,"inconclusive [cytotoxic, single point]"
same,Potency,Tov-21-G,inactive
same,Potency,MKL-2,inactive
CCCCc1cc2ccccc2c(OCCN(C)C)n1,Potency,[3],"inconclusive [inhibitor, partial curve, poor fit]"
same,Potency,[1],"inconclusive [inhibitor, single point]"
same,Potency,[4],"inconclusive [inhibitor, partial curve]"
same,Potency,HEK293,active: 18.8 µM
same,Potency,CASKI,"inconclusive [cytotoxic, single point]"
same,Potency,OV90,"inconclusive [cytotoxic, single point]"
same,Potency,SKOV3,"inconclusive [cytotoxic, partial curve, poor fit]"
same,"activity change, negative = cytotoxicity",MKL-2,inconclusive: -32.9% [inhibitor]
CN(C)CCOC(c1ccccc1)c1ccc(Br)cc1 (centres undefined),Potency,[1],"inconclusive [inhibitor, partial curve, poor fit]"
same,Potency,[4],"inconclusive [inhibitor, single point]"
same,Potency,HEK293,"inconclusive [inhibitor, single point]"
same,Potency,CAOV3,inactive
same,Potency,OV90,active: 12.6 µM
same,Potency,SKOV3,"inconclusive [cytotoxic, single point]"
same,Potency,MKL-2,"inconclusive [inhibitor, single point]"
c1ccc(CNCCNCc2ccccc2)cc1,Potency,[1],inactive
same,Potency,[4],inactive
same,Potency,HEK293,"inconclusive [inhibitor, single point]"
same,Potency,CAOV3,inactive
same,Potency,PA-1,inactive
same,Potency,MKL-2,"inconclusive [inhibitor, single point]"
CCOCCn1c(C2CCN(CCc3ccc(C(C)(C)C(=O)O)cc3)CC2)nc2ccccc21,Potency,[1],"inconclusive [inhibitor, full curve, poor fit]"
same,Potency,[5],"inconclusive [inhibitor, single point]"
same,Potency,[4],"inconclusive [inhibitor, single point]"
same,Potency,[2],"inconclusive [inhibitor, single point]"
same,max response,HEK293,inactive: -1.51%
same,Potency,CAOV3,"inconclusive [cytotoxic, single point]"
same,Potency,CASKI,inactive
same,Potency,SKOV3,inactive
same,Potency,MKL-2,inactive
CCOC(=O)c1cnc2c(cnn2CC)c1NN=C(C)C,Potency,[3],"inconclusive [inhibitor, full curve, poor fit]"
same,Potency,[4],"inconclusive [inhibitor, single point]"
same,Potency,[2],inactive
same,max response,HEK293,inactive: 2.79%
same,Potency,MKL-2,"inconclusive [inhibitor, single point]"
C#Cc1ccc(-c2ccccc2F)cc1,Potency,[1],"inconclusive [inhibitor, partial curve, poor fit]"
same,Potency,[4],inactive
same,Potency,[2],inactive
same,max response,HEK293,inactive: -8.83%
same,Potency,C33A,inactive
same,Potency,HeLa,inactive
same,Potency,MKL-2,inactive
Cc1cc2c(cc1S(N)(=O)=O)S(=O)(=O)CCC2,Potency,[1],"inconclusive [inhibitor, partial curve, poor fit]"
same,Potency,[5],inactive
same,outcome,HEK293,inactive
same,Potency,Tov-21-G,inactive
same,Potency,[6],inactive
C/C=C(\C)C(=O)OC1C(C)C2(O)C(C=C(CO)CC3(O)C(=O)C(C)=CC32)C2C(C)(C)C12OC(=O)C(C)C (centres undefined),Potency,[3],"inconclusive [inhibitor, full curve, poor fit]"
same,Potency,[4],"inconclusive [inhibitor, full curve, poor fit]"
same,Potency,[2],"inconclusive [inhibitor, full curve, poor fit]"
same,Potency,HEK293,"inconclusive [inhibitor, full curve]"
same,Potency,C33A,"inconclusive [rising, full curve, poor fit]"
Cc1nc2cc(C(=O)NCc3ccccn3)nn2c(C)c1Cc1cccc(Cl)c1,Potency,[3],"inconclusive [inhibitor, partial curve]"
same,Potency,[7],"inconclusive [inhibitor, partial curve, poor fit]"
same,Potency,[5],"inconclusive [inhibitor, single point]"
same,Potency,[4],"inconclusive [inhibitor, single point]"
same,Potency,[2],"inconclusive [inhibitor, single point]"
same,Potency,HEK293,"inconclusive [inhibitor, single point]"
same,Potency,C33A,inactive
same,Potency,HeLa,inactive
same,Potency,Hek293T,inactive
same,Potency,OV90,"inconclusive [cytotoxic, single point]"
same,Potency,SKOV3,"inconclusive [cytotoxic, single point]"
